This experiment has as its system NCI-H322M lung. The experiment in a line: NCI anticancer screen, dose series, 48 h.

Molecules are shown by their SMILES.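 1) Cells in 96-well plates. 2) Compound, 48 h, 5 concentrations. 3) Linear interpolation between surrounding doses. 4) Unreached endpoint = highest concentration. GI50 is the concentration that inhibits growth by half. At the TGI there is no net growth.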

As to `CC(=O)/C=C/c1cccc2c1C(=O)NC(C)(c1cc3cc(Br)ccc3oc1=O)N2` (configuration not stated), the GI50 was 16.6 µM and the TGI turned out to be 67.1 µM.

The values above are taken from PubChem BioAssay (NCI).
